In PubChem BioAssay AID1645887 (National Center for Advancing Translational Sciences (NCATS), 2021) one finds activation data, which are given here for 42 compounds.

Values joined by “and” are separate entries in the source; they are usually repeats but may differ in a detail not shown here. Identical values can stand only once. In all, about 16,000 compounds went through this assay and about 40 (0.2%) were called active. Roughly 1% stayed inconclusive and do not appear here. Calls come from the whole dose curve; as a rule, active = well fitted activation curve with a large enough effect; inconclusive = small, poorly fitted or top-dose-only effect, or another doubt; inactive = no such curve, though single readings can be large or run the other way. The list shows a part of the results.
% is set by controls: 0 for no effect and ±100 for the full control effect.

Chain of UniProt Q8WZA2 (Q8WZA2 whole entry, looked up): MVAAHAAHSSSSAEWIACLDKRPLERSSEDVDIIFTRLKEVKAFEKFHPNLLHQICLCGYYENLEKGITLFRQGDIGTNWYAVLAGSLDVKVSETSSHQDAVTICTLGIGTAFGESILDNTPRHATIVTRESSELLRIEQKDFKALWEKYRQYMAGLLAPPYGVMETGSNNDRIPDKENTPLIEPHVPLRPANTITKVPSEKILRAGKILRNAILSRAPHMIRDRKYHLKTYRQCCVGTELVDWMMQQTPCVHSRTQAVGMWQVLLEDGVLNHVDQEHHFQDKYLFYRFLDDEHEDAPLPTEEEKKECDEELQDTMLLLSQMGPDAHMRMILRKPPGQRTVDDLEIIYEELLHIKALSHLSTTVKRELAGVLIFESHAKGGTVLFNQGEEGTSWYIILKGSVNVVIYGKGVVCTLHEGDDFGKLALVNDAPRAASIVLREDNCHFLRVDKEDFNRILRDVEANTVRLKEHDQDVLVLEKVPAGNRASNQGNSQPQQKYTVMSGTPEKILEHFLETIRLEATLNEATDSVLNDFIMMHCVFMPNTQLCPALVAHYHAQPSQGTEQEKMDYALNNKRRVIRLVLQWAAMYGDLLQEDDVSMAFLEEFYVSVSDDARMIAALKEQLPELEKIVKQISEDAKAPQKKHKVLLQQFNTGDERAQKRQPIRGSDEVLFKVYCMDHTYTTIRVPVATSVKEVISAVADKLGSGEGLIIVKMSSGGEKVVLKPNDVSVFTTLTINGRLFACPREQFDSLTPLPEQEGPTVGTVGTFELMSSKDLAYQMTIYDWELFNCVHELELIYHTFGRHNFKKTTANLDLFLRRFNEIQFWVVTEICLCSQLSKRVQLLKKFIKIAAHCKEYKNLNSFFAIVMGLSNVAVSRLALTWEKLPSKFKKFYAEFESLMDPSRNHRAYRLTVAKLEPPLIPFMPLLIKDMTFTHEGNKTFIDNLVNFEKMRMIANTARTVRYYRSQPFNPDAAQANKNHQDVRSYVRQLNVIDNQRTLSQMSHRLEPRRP

The target of the assay is Rap guanine nucleotide exchange factor 4 (Homo sapiens) (UniProt Q8WZA2). Nature of the assay: Validation qHTS for agonist of cAMP-regulated guanine nucleotide exchange factor 4 (EPAC2).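 Note: exchange makes BODIPY-GDP fluorescence drop when released from Rap1B; series mostly up to about 150 µM.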 The note with it: EPAC2 Rap1B BODIPY-GDP exchange, fluorescence; activation: hits give high values. From the text:
Principle Investigator: Xiaodong Cheng Ph.D.
The University of Texas Medical Branch, […], TX
In multi-cellular eukaryotic organisms, the effects of cAMP are transduced by two ubiquitously-expressed intracellular cAMP receptors, the classic protein kinase A/cAMP-dependent protein kinase (PKA/cAPK) and the more recently discovered exchange protein directly activated by cAMP/cAMP-regulated guanine nucleotide exchange factor (EPAC/cAMP-GEF). Both PKA and EPAC are ubiquitously expressed in all tissues, and an increase in intracellular cAMP levels will lead to the activation of both PKA and EPAC. Therefore, careful dissections of the individual role and relative contribution of EPAC and PKA within the overall cAMP signaling in various model systems are critical for further elucidating the mechanism of cAMP signaling. To date no EPAC-specific antagonists and agonist, as well as isoform-specific agonists have been reported, and developing EPAC-specific pharmacological probes to determine the physiological functions that EPAC play in the overall cAMP-mediated signaling remains a major challenge within the research field. Furthermore, identified regulators of EPAC may lead to new mechanism-based therapeutic strategies specifically targeting the EPAC / cAMP-signaling components as EPAC has been implicated to play important roles in major human pathological conditions such as diabetes, heart disease, and cancer.
This qHTS will be used to screen the Molecular Libraries Small Molecule Repository (MLSMR) as a concentration-titration series using the NCGC unique quantitative screening (qHTS) platform to find activators for EPAC1. In addition, this assay will also be used as a counterscreen for the EPAC2 qHTS. This fluorescent based assay is developed and validated for EPAC1 that measures exchange using EPAC effector Rap1 complex with BODIPY-GDP, a GDP analog with a tethered fluorophores. Activators are identified by monitoring the change in fluorescence signal as the exchanged free BODIPY-GDP has a reduced fluorescence compared to Rap1-bound BODIPY-GDP. Increase in signal (activation) is the desired outcome for the EPAC1 agonist while no activity in this assay is desired for the EPAC2 agonist counterscreen.
[1] de Rooij, J., Zwartkruis, F. J., Verheijen, M. H., Cool, R. H., Nijman, S. M., Wittinghofer, A., and Bos, J.L. (1998) Nature 396, 474-477.
Briefly, three uL of reagents (100 nM EPAC2, 250 nM RAP1B-BODIPY-GDP, 50 uM GDP) were dispensed into a 1536-well Greiner black solid-bottom medium binding assay plate. Controls and test compounds (23 nL) were transferred to the plate via a Kalypsys pin tool equipped with a 1536-pin array. The plates were centrifuged at 1,000 rpm for 15 seconds followed by 5 minute incubation at room temperature. The assay plates were read at 5 minute intervals for 30 minutes in the ViewLux plate reader using 480nm excitation and 540nm emission filters. The results were normalized to the agonist positive control of 6.5 mM cAMP.
Background: Quantitative high-throughput screening tests each substance at several concentrations.
Turning to `C=CCN1CCC2(C)c3cc(O)ccc3C[C@H]1[C@H]2C`, the activation was inactive: -15.1%.

As to `C=C(C)[C@H]1CN[C@H](C(=O)O)[C@H]1CC(=O)O`, the activation was inactive: -7.86% and inactive: -10.8%. The same measure for `NC1CC1c1ccccc1` (configuration not stated): inactive: -18.1%; for `c1cnc(N2CC[C@@]3(CCCNC3)C2)nc1`: inactive: -2.15%; for `CCC(C)(S(=O)(=O)CC)S(=O)(=O)CC`: inactive: -3.66%. Next, `O=c1cccc2n1CC1CC2CN2CCCC[C@H]12` (some centres not stated): inactive: 0.0153%; `CC(C)N(C(=O)CCl)c1ccccc1`: inactive: -8.85%; `C[C@H](N)Cc1cnc[nH]1`: inactive: -14.4% and inactive: -6.24%. With `CCC1(c2ccccc2)C(=O)NC(=O)N(C)C1=O` (configuration not stated), the activation is inactive: -24.1%. `CCCC(C)C1(CC)C(=O)N=C(S)NC1=O` (configuration not stated): the activation is inactive: -24.8% and inactive: -11.6%. Next, `Nc1ccccc1C(=O)O`: inactive: 15.6%. Turning to `C=CC[C@]1(O)CC[C@H]2[C@@H]3CCC4=CCCC[C@@H]4[C@H]3CC[C@@]21C`, the activation was inactive: 2.36%.

On to `CN(C)C1C(=O)C(C(N)=O)=C(O)[C@@]2(O)C(=O)C3=C(O)c4c(O)cccc4[C@@](C)(O)C3[C@H](O)C12` (some centres not stated), for which the activation was inactive: -6.02%. The same measure for `CC1CC[C@]2(NC1)OC1CC3C4CC=C5CC(O)CC[C@@]5(C)C4CC[C@]3(C)C1C2C` (some centres not stated): inactive: 7.18%; for `c1ccc(CCCCN2CCC(c3ccccc3)CC2)cc1`: inactive: 0.412% and inactive: -9.46%; for `Cc1cc(O)ccc1Cl`: inactive: -10.1% and inactive: -9.14%.

`COC1=CC2C3Cc4ccc(OC)c(O)c4[C@]2(CCN3C)CC1=O` (some centres not stated): the activation is inactive: 4.03%.

Take `CC1O[C@@H](OC2CC(O)[C@@]3(CO)C4C(O)C[C@@]5(C)C(C6=CC(=O)OC6)CC[C@]5(O)C4CC[C@]3(O)C2)C(O)C(O)C1O` (some centres not stated): the activation was inactive: 0.277%. The same measure for `CCCCC[C@@H](/C=C/C=C\CCCCCCCC(=O)O)OO`: inactive: -7.62%. Next, `CN1Cc2ccccc2[C@@H]2c3cccc4[nH]cc(c34)C[C@H]21`: inactive: -13.4% and inactive: 3.97%; `C=C[C@H]1CN2CC[C@H]1C[C@H]2[C@H](OC(=O)OCC)c1ccnc2ccc(OC)cc12`: inactive: -4.28%; `O=C(N[C@H]1CN2CCC1CC2)c1ccc(Cl)cc1`: inactive: -22.2%.

Turning to `O=[N+]([O-])c1ccc2nc(N3CCNCC3)ccc2c1`, the activation is inactive: 5.31% and inactive: -96.9%. Next, `N[C@@]1(C(=O)O)CC[C@H](C(=O)O)C1`: inactive: -5.79% and inactive: 8.79% and inactive: -6.46%; `C[C@H]1C[C@H](C)C(=O)[C@@H]([C@H](O)CC2CC(=O)NC(=O)C2)C1`: inactive: -11.3%; `C[N+]1=Cc2cc3c(cc2CC1)OCO3`: inactive: -6.88%. Next, `C[C@]12C=CC(=O)C=C1CC[C@@H]1[C@@H]2CC[C@@]2(C)[C@H]1CC[C@]2(C)O`: inactive: -8.19%. Turning to `CC=C(C)C(=O)O[C@H]1C(C)=C2[C@@H]3OC(=O)[C@@](C)(O)[C@@]3(O)[C@@H](OC(=O)CCC)C[C@](C)(OC(C)=O)[C@@H]2[C@@H]1OC(=O)CCCCCCC`, the activation was inactive: -41.4%. Next, `CN(C)C1C(=O)C(C(N)=O)=C(O)[C@@]2(O)C(=O)C3=C(O)c4c(O)cccc4[C@@](C)(O)C3C[C@@H]12` (some centres not stated): inactive: 6.22%; `c1csc(CN2CCC3(CCNCC3)CC2)n1`: inactive: 1.44%; `CN1CCC2=C[C@@H](O)[C@@H]3OC(=O)c4cc5c(cc4C3C21)OCO5` (some centres not stated): inactive: 3.16%. The same measure for `C[C@]12CC[C@H]3[C@@H](CCC4=CC(=O)CC[C@@H]43)[C@@H]1CC[C@@H]2O`: inactive: -6.41% and inactive: 6.99%; for `COc1ccc2c(c1)c(CCN1CCOCC1)c(C)n2C(=O)c1cccc(Cl)c1Cl`: inactive: 10.2%; for `Oc1ccc2c3c1O[C@H]1c4oc5ccccc5c4C[C@@]4(O)C(C2)N(CC2CC2)CC[C@]314`: inactive: 7.59%. Next, `C=CCN1C[C@@H](C)N([C@H](c2ccc(C(=O)N(CC)CC)cc2)c2cccc(OC)c2)C[C@@H]1C`: inactive: -40.9%; `Nc1ncn[nH]1`: inactive: -26.4%. On to `COc1ccc(CN2CCNCC2)c(OC)c1OC`, for which the activation was inactive: -16.1%. In the case of `Cc1c(C(=O)c2ccc3ccccc3c2)c2cccc3c2n1[C@H](CN1CCOCC1)CO3`, the activation was inactive: 10.7%. Consider `C=CCC1([C@@H](C)CCC)C(=O)NC(=O)NC1=O`, for which the activation was inactive: 0.0885%.

On to `CC(C)NC[C@H](O)c1ccc(N)c(C#N)c1`, for which the activation is inactive: -4.67%. The same measure for `CCCN(CCC)CCc1c[nH]c2ccc(C(N)=O)cc12`: inactive: 2.39% and inactive: -2.39%.

Turning to `CCN1C[C@]2(COC(=O)c3ccccc3N3C(=O)CC(C)C3=O)CC[C@H](OC)[C@@]34C5C[C@@H]6[C@@H](OC)C[C@@](O)(C5[C@H]6OC)[C@](O)([C@@H](OC)C23)[C@@H]14` (some centres not stated), the activation was inactive: 1.62%.
